In ChEMBL document CHEMBL4888484, “Replenishing the malaria drug discovery pipeline: Screening and hit evaluation of the MMV Hit Generation Library 1 (HGL1) against asexual blood stage Plasmodium falciparum ,using a nano luciferase reporter read-out” (2022):
Out of some 150,000 compounds screened, about 540 (0.36%) showed an effect of 50% or more. The list shows a part of the results.

Test system: Plasmodium falciparum
Experiment: Primary screen in NF54 nanoGlo assay, in single point, at 2uM, 72h; a lower Z score goes with more inhibition
Type: functional, Erythrocyte
Details: timepoint 72 hour

Row | SMILES | % Inhibition [%] | Z score
1 | O=C1Cc2cc(S(=O)(=O)N3CCN(c4ccccc4)CC3)ccc2N1 | -11 | 1.49
2 | Cc1cc(NC(=O)[C@H](C)N2CCN(Cc3cccs3)CC2)on1 | -4 | 0.6
3 | O=C(CCC1CCN(Cc2ccc3nonc3c2)CC1)N1CCOCC1 | -1 | 0.18
4 | CN1CC[C@H](C(=O)N2CCC(Cc3ccccc3)CC2)CC1=O | -4 | 0.55
5 | CCn1nc(C)c2c(C(=O)NC3CC4CCC(C3)N4C)cc(-c3ccc(C)cc3)nc21 (stereo unspecified) | -9 | 1.39
6 | Cc1nccn1-c1ccnc(C(=O)NC[C@H]2CCNCC2(F)F)c1 | -1 | 0.1
7 | Cc1cscc1C(=O)N1CCO[C@@H](CC(=O)O)C1 | -1 | 0.16
8 | Cc1ccc(C#N)c(N2C[C@@H]3COc4ccccc4C[C@]3(CO)C2)n1 | -5 | 0.47
9 | Cc1cccc(CNC(=O)c2nn(-c3ccccn3)c3nccc(-c4cccs4)c23)c1 | 3 | -0.36
10 | O=C1[C@@H]2CC[C@@H](CN(c3ncnc4[nH]cnc34)C2)N1Cc1cscn1 | -1 | 0.26
11 | Cc1cc(NC(=O)C(=O)NCCc2cccc(O)c2)n(-c2ncccn2)n1 | 1 | -0.12
12 | CC(CO)(CO)NC(=O)Cc1cc(F)ccc1Br | -7 | 0.75
13 | CCOC(=O)NCC#CCOc1cccc(C(F)(F)F)c1 | -20 | 2.51
14 | COc1ccccc1C(=O)Nc1ccc(N2CCCN(Cc3ccccc3C#N)C2=O)cc1 | -12 | 1.6
15 | CO[C@H]1[C@@H]2CC[C@H]1CN(C(=O)NCCc1cnn(-c3ccccc3)c1)C2 | -3 | 0.5
16 | O=C(CCc1nc2ccccc2s1)c1ccc(F)cc1 | -13 | 1.49
17 | CO[C@@H]1CC[C@@]2(OC)CCN(S(=O)(=O)c3cc(F)ccc3C)[C@H]2C1 | -1 | 0.15
18 | Cc1ccsc1C(=O)NCC1(C)CCOCC1 | -6 | 1.08
19 | Nc1ccc(C2(c3ccc(N)cc3)c3ccccc3C(=O)c3ccccc32)cc1 | 18 | -2.61
20 | CN(Cc1cn(C)nn1)C(=O)NCc1nc2ccccc2n1C1CC1 | -11 | 1.42
21 | CCCOC[C@H]1CCN(c2ncncc2C(=O)O)C1 | -3 | 0.28

Row | SMILES | % Inhibition [%] | Z score
22 | C[C@H]1CCCCN1c1ccc(C(N)=O)cc1NC(=O)c1ncccc1O | -13 | 1.43
23 | COc1ccccc1-c1nc(NCCN2CCCCC2)nc2nn(-c3ccccc3)c(N)c12 | -5 | 0.57
24 | CC1(C2CC2)CCN(C(=O)c2csnn2)CC1 | 2 | -0.37
25 | C[C@@H](C(=O)NC1(C(=O)O)CCCC1)N(C)C1CCCCC1 | 1 | -0.11
26 | COC(=O)CCN(C)S(=O)(=O)N1CCC(C)CC1C(C)O (stereo unspecified) | -5 | 0.56
27 | C[C@@H](CNC(=O)C1(N2CCOCC2)CCCCC1)Oc1cccnc1 | 3 | -0.52
28 | CC(C)C[C@H]1C(=O)N2C[C@@H](N(C)C)C[C@H]2CN1C(=O)c1nccc2ccccc12 | -11 | 1.32
29 | O=C(c1cn2ccccc2n1)N1CCN(S(=O)(=O)c2ccc(Cl)cc2)CC1 | -12 | 2.48
30 | Cc1nonc1COC(=O)c1nc(C)n2ccccc12 | -6 | 0.9
31 | CCOC(=O)C(NC(=O)c1cccc[n+]1[O-])C(=O)OCC | -11 | 1.74
32 | Cc1cccc(Cn2c(=O)c(C(=O)N3CCOCC3)nn(-c3cccc(F)c3)c2=O)c1 | -6 | 0.84
33 | CCn1cnc(NC(=O)N2CCC[C@H](C(C)(C)O)C2)n1 | -18 | 1.74
34 | O=C(Cc1cccc(N(Cc2ccc(F)cc2)C(=O)c2ccc(Cl)cc2)c1)NCc1ccc(F)cc1 | -3 | 0.53
35 | O=C(O)CN1CCCCC(N2CCCC3(CCCc4ccccc43)C2)C1=O (stereo unspecified) | -7 | 1.1
36 | Cc1ccc(-c2nc3cc(C(=O)N4CCC(CC(=O)N5CCCCCC5)CC4)ccc3o2)cc1 | -19 | 2.26
37 | CCOc1ccc(Cl)cc1CN[C@@H](CC)CO | 31 | -3.46
38 | Cc1ccccc1OCCn1cc(C(N)=O)c(-c2ccccc2)n1 | -6 | 0.62
39 | N#Cc1c(NCc2ccco2)ncnc1N1CCCC1 | -8 | 0.85
40 | Cc1cc(F)ccc1-c1nc(-c2cc(N3CCN(C)CC3)ccn2)no1 | -6 | 0.59
41 | COc1ccc(-c2nn(-c3ccccc3Cl)c(N)c2NC(=O)NC2CCCCC2)cc1 | -8 | 1.55
42 | CC(=O)N(Cc1ccc2c(c1)OCO2)c1cccc(-c2nc3ccccc3o2)c1 | 40 | -5.18

Row | SMILES | % Inhibition [%] | Z score
43 | Cc1csc(-c2cc(S(=O)(=O)NC3CCCCC3)cn2CC(=O)N2CCCCC2)n1 | -12 | 1.38
44 | O=C(N[C@H]1CCOC2(CCCC2)C1)c1ccc2nccnc2n1 | -10 | 1.3
45 | CC[C@H](Nc1cc([C@H]2C[C@H](N)C2)nc(C2CC2)n1)c1ccccc1 | 5 | -0.7
46 | CCOc1ccccc1CN(Cc1ccc2nonc2c1)C1CC1 | 1 | -0.15
47 | CC(C)O[C@H]1CN(C(=O)c2ccc3nc(-c4ccccc4)cn3c2)C[C@@H]1O | -7 | 1.09
48 | O=C([C@H]1CCCN(C2CCN(Cc3ccncc3)CC2)C1)N1CCCCCC1 | -11 | 2.2
49 | O=S(=O)(NCC[C@H]1CN(C2CCCCCC2)CCO1)C1CC1 | -2 | 0.33
50 | CCn1nc(C=Cc2ccncc2C#N)c2ccccc21 | -13 | 1.13
51 | Nc1c(Oc2ccccc2F)ncnc1N1CCCC1 | 10 | -1.7
52 | CC(=O)Nc1cccc(C(=O)N2CCC2)c1 | 12 | -1.59
53 | Cc1nn(-c2ccccc2)c(Oc2ccccc2)c1CN(CC1CC1)C(=O)c1ccco1 | -15 | 1.44
54 | Cc1cc(F)ccc1-c1cccc(C(=O)N2C[C@H]3C[C@H](O)[C@H](O)C[C@H]3C2)c1 | 4 | -0.57
55 | CCN1C(=O)c2cc(NC(=O)c3ccc(C)cc3)ccc2Oc2ccccc21 | -3 | 0.32
56 | O[C@@H](CNc1ccc(Br)cn1)c1ccncc1 | 0 | -0.03
57 | O=C1NCC2(CCN(c3ncnc4[nH]ccc34)CC2)Oc2ccccc21 | -1 | 0.21
58 | CC[C@H](O)c1cc2n(n1)CCN(c1ncc(F)c(N3CCOCC3)n1)C2 | 6 | -0.87
59 | O=C(NCc1ccco1)c1cccnc1 | -8 | 1.02
60 | O=C1CC[C@@H](c2nc(-c3ccc(F)cc3F)no2)c2ccccc21 | 15 | -1.81
61 | Cc1nc(NC(=O)c2cnn3c2OCCC3)sc1C | -7 | 1.15
62 | Cc1cccc(NC(=O)CN(C)c2ccc(C#N)nn2)c1C | -9 | 1.51
63 | COc1cccc(N2CCN(c3nc(-c4ccccc4F)no3)CC2)c1 | -6 | 0.95

Row | SMILES | % Inhibition [%] | Z score
64 | N=C(NC1CCCCC1)c1ccc(Cl)cc1 | 10 | -1.28
65 | Cn1ccnc1C1(O)CN(c2nc3cc(Cl)cc(Cl)c3o2)C1 | 11 | -1.66
66 | COc1ccccc1NS(=O)(=O)c1cc(-c2csc(C)n2)ccc1OC | -2 | 0.32
67 | Cc1c(C2(c3c(C)n(C)n(-c4ccccc4)c3=O)C(=O)Nc3ccc(F)cc32)c(=O)n(-c2ccccc2)n1C | 7 | -1.33
68 | Cc1cc(=O)[nH]c(=O)n1Cc1cccs1 | 8 | -0.94
69 | O=C(NCc1nsc2ccccc12)c1ccoc1C1CC1 | -4 | 0.45
70 | CCNC(=O)[C@H]1CCCN(c2nc3ncn(CC(=O)NCc4ccco4)c(=O)c3s2)C1 | -18 | 1.62
71 | CC(C)c1noc(NC2CCCC2CNC(=O)OC(C)(C)C)n1 (stereo unspecified) | -7 | 0.89
72 | CC1CC1N1CC(NC(=O)N2CCCC2C2CCCO2)CC1=O (stereo unspecified) | -8 | 1.01
73 | COc1ccc(CCN2C[C@H](O)C(C)(C)COCCC[C@H]3CN(Cc4csnn4)CC[C@H]3CC2=O)cc1 | -8 | 1.2
74 | Cc1nocc1S(=O)(=O)NCCc1ccns1 | -17 | 1.84
75 | O=C(NCc1cccnc1)[C@H]1CC(=O)N(Cc2cc(C(F)(F)F)cc(C(F)(F)F)c2)C1 | -14 | 2.25
76 | Cc1cnc(C)c(N2CCC(c3nc(-c4ccccn4)no3)CC2)n1 | -12 | 1.22
77 | O=C(Nc1nc2ccc(S(=O)(=O)N3CCCCC3)cc2s1)[C@@H]1CCCO1 | -9 | 1.63
78 | CCOC(C)(C)c1nc(Cc2cccc(Cl)c2)n[nH]1 | -10 | 2.01
79 | CN(C)S(=O)(=O)c1ccc(COc2ccccc2C(=O)Nc2cc(F)ccc2F)o1 | -8 | 1.11
80 | c1ccc2oc(-c3nnc(N4CCOCC4)[nH]3)cc2c1 | 10 | -1.28
81 | CC(C)c1ccc([C@@H](O)Cn2nc(N3CCCC3)sc2=S)cc1 | 8 | -0.94
82 | CN(C)c1cccc(Oc2nnnn2[C@H]2CO[C@H]3[C@@H]2OC[C@@H]3NC(=O)c2ccccc2)c1 | -2 | 0.2
83 | Cc1ccc(=O)n(CC(=O)N2CCN(c3ccc(F)cc3)CC2)n1 | 23 | -2.99
